Measurements taken from a collection of fitness landscapes (doi:10.1126/science.1257360).
The list shows a part of the results.

B1: PhoQ; a variant is named by its letters at X, in order, P23837 (parent)
chain: MKKLLRLFFPLSLRVRFLLATAAVVLVLSLAYGMVALIGYSVSFDKTTFRLLRGESNLFYTLAKWENNKLHVELPENIDKQSPTMTLIYDENGQLLWAQRDVPWLMKMIQPDWLKSNGFHEIEADVNDTSLLLSGDHSIQQQLQEVREDDDDAEMTHSVAVNVYPATSRMPKLTIVVVDTIPVELKSSYMVWSWFIYVLSANLLLVIPLLWVAAWWSLRPIEALAKEVRELEEHNRELLNPATTRELTSLVRNLNRLLKSERERYDKYRTTLTDLTHSLKTPLXXLQXXLRSLRSEKMSVSDAEPVMLEQISRISQQIGYYLHRASMRGGTLLSRELHPVAPLLDNLTSALNKVYQRKGVNISLDISPEISFVGEQNDFVEVMGNVLDNACKYCLEFVEISARQTDEHLYIVVEDDGPGIPLSKREVIFDRGQRVDTLRPGQGVGLAVAREITEQYEGKIVAGESMLGGARMEVIFGRQHSAPKDE

Variants of: B1
Assay: enrichment ratio after two sorts for PhoP signalling (ratio (wild type AVST 3.29)); higher = more functional
Details: with PhoP (E. coli)

Row | Variant | enrichment ratio
1 | RAII | ≤ 0.25
2 | IIKM | ≤ 0.25
3 | SDRE | ≤ 0.25
4 | IYCG | ≤ 0.25
5 | EVVW | ≤ 0.25
6 | HWHQ | ≤ 0.25
7 | MFHQ | 0.658
8 | KESG | ≤ 0.25
9 | ETWV | ≤ 0.25
10 | WRIH | ≤ 0.25
11 | QTWP | ≤ 0.25
12 | LQAG | ≤ 0.25
13 | TYFE | ≤ 0.25
14 | GYDL | ≤ 0.25
15 | MTYA | ≤ 0.25
16 | PEIN | ≤ 0.25

Row | Variant | enrichment ratio
17 | DMWP | ≤ 0.25
18 | DRGK | ≤ 0.25
19 | FCMF | 0.805
20 | SMYF | ≤ 0.25
21 | PYRC | ≤ 0.25
22 | NRCQ | ≤ 0.25
23 | IQER | ≤ 0.25
24 | QLAD | ≤ 0.25
25 | GGAG | ≤ 0.25
26 | CSTS | ≤ 0.25
27 | GIWH | 4.21
28 | NTCI | ≤ 0.25
29 | KPNM | ≤ 0.25
30 | EPDI | ≤ 0.25
31 | SSMG | 10.3
